Assay results: the RNAGym collection of RNA variant scans (doi:10.7554/elife.90254)
Read counts are not given, so values of variants with three or more changes are uncertain.

B1: LINE1-full (parent)
chain: UACGUAGGUGGUUUUCCCCUGAUAGUGCUAAGGGGGCCUGGAAGUUUGGACUGGGCAGAGCUCAACACAGCGUGGCAAAGUGGCUGUGGCUAGACUGCCUCUCUGGAUUCCUCGUCACUCAGCAGGGCAUCUCUGAGAGAAAUGCC

Variants of: B1
Test: self-cleavage, relative activity (ratio to wild type); higher = more cleavage; in vitro, sequencing; the parent is a self-cleaving ribozyme

| Variant | self-cleavage |
| --- | --- |
| UACGUAGGUGGUUUCCCCCUGAUAGUGCUAAGGGGGCCUGGAAGUUCGGACUGGGCAGAGCUCAACACAGCGUGGCAAAGUGGCUGUGGCUAGACUGCCUCUCUGGAUUCCUCGUCACUCAGCAAGGCAUCUCUGAGAGAAAUGCC [U15C U47C G125A] | 0.78 |
| UACGUAGGUGGUUUCCCCCUGAUAGUGCUAAGGGGGCCUGGAAGUUCGGACAGGGCAGAGCUCAACACAGCGUGGCAAGGUGGCUGUGGCUAGACUGCCUCUCUGGAUUCCUCGUCACUCAGCAGGGCAUCUCUGAGAGAAAUGCC [U15C U47C U52A A79G] | 1.67 |
| UACGUAGGUGGUUUCCCCCUGAUAGUGCUAAGGGGGCCUGGAAGUUCGGACUGGGCAGAGCUCAACACAGCGUGGCAAAGUGGCUGUGGCUAGACUGCCUCUCUGGAUCCCUCGUCUCUCAGCAGGGCAUCUCUGAGAGAAAUGCC [U15C U47C U109C A117U] | 0.4 |
| UACGUAGGUGGUUUCCCCCUGAUAGUGCUAAGGGGGCCUGGAAGUUCGGACUGGGCAGAGCUCAACACAGCGUGGCAAAGUGGCUGUGGCUAGACUGCCUCUCUGGAUUCCUCGUCACUCAGCAGGGCAUCUCCGAGAGAAAUGCC [U15C U47C U134C] | 1.69 |
| UACGUAGGUGGUUUCCCCCUGAUAGUGCUAAGGGGGCCUGGAAGUUGGGACUGGGCAGAGCUCAACACAGCGUGGCAAAGUGGCUGUGGCUAGACUGCCUCUCUGGAUUCCACGUCACUCAGCAGGGCAUCUCUGAGAGAAAUGCC [U15C U47G U112A] | 1.62 |
| UACGUAGGUGGUUUCCCCCUGAUAGUGCUAAGGGGGCCUGGAAGUUUGGACAGGGCAGAGCUCAACACAGCGUGGCAAAGUGGCUGUGGCUAGGCUACCUCUCUGGAUUCCUCGUCACUCAGCAGGGCAUCUCUGAGAGAGAUGCC [U15C U52A A94G G97A A141G] | 0.13 |
| UACGUAGGUGGUUUCCCCCUGAUAGUGCUAAGGGGGCCUGGAAGUUUGGACAGGGCAGAGCUCAACACAGCGUGGCAAAGUGGCUGUGGCUAGACUGCCUCCCUGGAUUCCUCGCCACUCAGCAGGGCAUCUCUGAGAGAAAUGCC [U15C U52A U102C U115C] | 2.1 |
| UACGUAGGUGGUUUCCCCCUGAUAGUGCUAAGGGGGCCUGGAAGUUUGGACCGGGCAGAUCUCAACACAGCGUGGCAAAGUGGCUGUGGCUAGACUGCCUCUCUGGAUUCCUCGUCACUCAGCAGGGCAUCUCUGAGAGAAAUGCC [U15C U52C G60U] | 0.01 |
| UACGUAGGUGGUUUCCCCCUGAUAGUGCUAAGGGGGCCUGGAAGUUUGGACCGGGCAGAGCUCAACACAGCGUGGCAAAGUGGCUGUGGCUAGACUGCCUCUCUGGAUUCCUCGCCACUCAGCAGGGCAUCUCUGAGAGAAAUGCC [U15C U52C U115C] | 1.69 |
| UACGUAGGUGGUUUCCCCCUGAUAGUGCUAAGGGGGCCUGGAAGUUUGGACUGGGCAGAGCCCAACACAGCGUGGCAAAGUGGCUGUGGCUAGACUGCCUCUCUGGAUUCCUCGUCACUCAGCAGGGCAUCUCUGAGGGAAAUGCC [U15C U62C A138G] | 0.1 |
| UACGUAGGUGGUUUCCCCCUGAUAGUGCUAAGGGGGCCUGGAAGUUUGGACUGGGCAGAGCCCAACACAGCGUGGCAAAGUGGCUGUGGCUAGACUGCCUCUCUGGAUUCCUCGUCACUCAGCAGGGCAUCUCUGAGUGAAAUGCC [U15C U62C A138U] | 0.13 |
| UACGUAGGUGGUUUCCCCCUGAUAGUGCUAAGGGGGCCUGGAAGUUUGGACUGGGCAGAGCCCAACACAGCGUGGCAAAGUGGCUGUGGCUAGACUGCCUCUCUGGAUUCCUCGUCACUCAGCAGGGCAUCCCUGAGAGAAAUGCC [U15C U62C U132C] | 0 |
| UACGUAGGUGGUUUCCCCCUGAUAGUGCUAAGGGGGCCUGGAAGUUUGGACUGGGCAGAGCUCAACACAGCGCGGCAAAGUGGCUGUGGCUAGACUGCCUCUCUGGGUUCCUCGUCACUCAGCAGGGCAUCUCUGAGAGAAAUGCC [U15C U73C A107G] | 1.31 |
| UACGUAGGUGGUUUCCCCCUGAUAGUGCUAAGGGGGCCUGGAAGUUUGGACUGGGCAGAGCUCAACACAGCGGGGCAAAGUGGCUGUGGCUAGACUGCCUCUCUGGAUUCCUCGUCACUCAGUAGGGCAUCUCUGAGAGAAAUGCC [U15C U73G C123U] | 1.42 |
| UACGUAGGUGGUUUCCCCCUGAUAGUGCUAAGGGGGCCUGGAAGUUUGGACUGGGCAGAGCUCAACACAGCGUGGCAAAGAGGCUGUGGCUAGGCUGCCUCUCUGGAUCCCUCGUCACUCAGCAGGGCAUCCCUGAGAGAAAUGCC [U15C U81A A94G U109C U132C] | 0 |
| UACGUAGGUGGUUUCCCCCUGAUAGUGCUAAGGGGGCCUGGAAGUUUGGACUGGGCAGAGCUCAACACAGCGUGGCAAAGCGGCUGUGGCCAGACUGCCUCUCUGGAUUCCUCGUCACUCAGCAGGGCAUCUCUGAGAGAAAUGCC [U15C U81C U91C] | 0.54 |
| UACGUAGGUGGUUUCCCCCUGAUAGUGCUAAGGGGGCCUGGAAGUUUGGACUGGGCAGAGCUCAACACAGCGUGGCAAAGCGGCUGUGGCUAGACUGCCUCUCUGGAUUCCUCGACACUCAGCAGGGCAUCUCUGAGAGAAAUGCC [U15C U81C U115A] | 1.55 |
| UACGUAGGUGGUUUCCCCCUGAUAGUGCUAAGGGGGCCUGGAAGUUUGGACUGGGCAGAGCUCAACACAGCGUGGCAAAGUGGCAGUGGCUAGACUGCCUCUCUGGAUUCCUCGUCACCCAGCAGGGCAUCUCUGAGAGAAAUGCC [U15C U85A U119C] | 0.19 |
| UACGUAGGUGGUUUCCCCCUGAUAGUGCUAAGGGGGCCUGGAAGUUUGGACUGGGCAGAGCUCAACACAGCGUGGCAAAGUGGCCGUGGCUAGACUGCCUCUCUGGUUUCCUCGCCACUCAGCAGGGCAUCUCUGAGAGAAAUGCC [U15C U85C A107U U115C] | 0 |
| UACGUAGGUGGUUUCCCCCUGAUAGUGCUAAGGGGGCCUGGAAGUUUGGACUGGGCAGAGCUCAACACAGCGUGGCAAAGUGGCCGUGGCUAGACUGCCUCUCUGGAUUCCUCGUCGCUCAGCAGGGCAUCUCUGAGAGAAAUGCC [U15C U85C A117G] | 0.3 |

| Variant | self-cleavage |
| --- | --- |
| UACGUAGGUGGUUUCCCCCUGAUAGUGCUAAGGGGGCCUGGAAGUUUGGACUGGGCAGAGCUCAACACAGCGUGGCAAAGUGGCCGUGGCCAGACUGCCUCUCUGGAUUCCUCGUCACUCAGCAGGGCAUCUCUGAGAGAAAUGCC [U15C U85C U91C] | 0 |
| UACGUAGGUGGUUUCCCCCUGAUAGUGCUAAGGGGGCCUGGAAGUUUGGACUGGGCAGAGCUCAACACAGCGUGGCAAAGUGGCUGUGGCCAGACUGCCUCUCUGGAUUCCUCGUCACUCAGCAGGGCAUCUCGGAGAGAGAUGCC [U15C U91C U134G A141G] | 1.12 |
| UACGUAGGUGGUUUCCCCCUGAUAGUGCUAAGGGGGCCUGGAAGUUUGGACUGGGCAGAGCUCAACACAGCGUGGCAAAGUGGCUGUGGCCAGACUGCCUCUCUGGAUUCCUCGUCACUCAGCAGGGCAUCUCUGAGAGAAACGCC [U15C U91C U143C] | 0.43 |
| UACGUAGGUGGUUUCCCCCUGAUAGUGCUAAGGGGGCCUGGAAGUUUGGACUGGGCAGAGCUCAACACAGCGUGGCAAAGUGGCUGUGGCUAGACCGCCUCUAUGGAUUCCUCGUCACUCAGCAGGGCAUCUCUGAGAGAAAUGCC [U15C U96C C103A] | 0.25 |
| UACGUAGGUGGUUUCCCCCUGAUAGUGCUAAGGGGGCCUGGAAGUUUGGACUGGGCAGAGCUCAACACAGCGUGGCAAAGUGGCUGUGGCUAGACUGCCCCUCUGGAUUCCUCGUCACCCAGCAGGGCAUCUCUGAGAGAAAUGCC [U15C U100C U119C] | 2.63 |
| UACGUAGGUGGUUUCCCCCUGAUAGUGCUAAGGGGGCCUGGAAGUUUGGACUGGGCAGAGCUCAACACAGCGUGGCAAAGUGGCUGUGGCUAGACUGCCUCCCUGGAUUCCUCGACACUCAGCAGGGCAUCUCUGAGGGAGAUGCC [U15C U102C U115A A138G A141G] | 2.19 |
| UACGUAGGUGGUUUCCCCCUGAUAGUGCUAAGGGGGCCUGGAAGUUUGGACUGGGCAGAGCUCAACACAGCGUGGCAAAGUGGCUGUGGCUAGACUGCCUCCCUGGAUUCCUCGGCACUCUGCAGGGCAUCUCUGAGAGAAAUGCC [U15C U102C U115G A121U] | 2.45 |
| UACGUAGGUGGUUUCCCCCUGAUAGUGCUAAGGGGGCCUGGAAGUUUGGACUGGGCAGAGCUCAACACAGCGUGGCAAAGUGGCUGUGGCUAGACUGCCUCCCUGGAUUCCUCGUCACUCAGCAGGGCAUCUCCGAGAGAAAAGCC [U15C U102C U134C U143A] | 0.84 |
| UACGUAGGUGGUUUCCCCCUGAUAGUGCUAAGGGGGCCUGGAAGUUUGGACUGGGCAGAGCUCAACACAGCGUGGCAAAGUGGCUGUGGCUAGACUGCCUCUCAGGAUUCCUCGUCACUCAGCAGGGCCUCUCUGAGAGAAAUGCC [U15C U104A A129C] | 1.51 |
| UACGUAGGUGGUUUCCCCCUGAUAGUGCUAAGGGGGCCUGGAAGUUUGGACUGGGCAGAGCUCAACACAGCGUGGCAAAGUGGCUGUGGCUAGACUGCCUCUCCGGAUUCCUCGACACUCAGCAGGGCAUCUCUGAGAGAAAUGCC [U15C U104C U115A] | 2.3 |
| UACGUAGGUGGUUUCCCCCUGAUAGUGCUAAGGGGGCCUGGAAGUUUGGACUGGGCAGAGCUCAACACAGCGUGGCAAAGUGGCUGUGGCUAGACUGCCUCUCUGGACUCCUCGUCACUCAGCAGGGCAUCUCUGAGAGAUAUGCC [U15C U108C A141U] | 1.64 |
| UACGUAGGUGGUUUCCCCCUGAUAGUGCUAAGGGGGCCUGGAAGUUUGGACUGGGCAGAGCUCAACACAGCGUGGCAAAGUGGCUGUGGCUAGACUGCCUCUCUGGACUCCUCGUCACUCAGCAGGGCAUCUCCGAGAGAAAUGCC [U15C U108C U134C] | 0.57 |
| UACGUAGGUGGUUUCCCCCUGAUAGUGCUAAGGGGGCCUGGAAGUUUGGACUGGGCAGAGCUCAACACAGCGUGGCAAAGUGGCUGUGGCUAGACUGCCUCUCUGGAUACCUCGUCGCUCAGCAGGGCAUCUCUGAGAGAAAUGCC [U15C U109A A117G] | 1.97 |
| UACGUAGGUGGUUUCCCCCUGAUAGUGCUAAGGGGGCCUGGAAGUUUGGACUGGGCAGAGCUCAACACAGCGUGGCAAAGUGGCUGUGGCUAGACUGCCUCUCUGGAUUCCUCGCCUCUCAGCAGGGCAUCCCUGAGAGAAAUGCC [U15C U115C A117U U132C] | 1.1 |
| UACGUAGGUGGUUUCCCCCUGAUAGUGCUAAGGGGGCCUGGAAGUUUGGACUGGGCAGAGCUCAACACAGCGUGGCAAAGUGGCUGUGGCUAGACUGCCUCUCUGGAUUCCUCGCCACUCAGCAGGGCGUCUCUGAGAGAAAUGCC [U15C U115C A129G] | 2.48 |
| UACGUAGGUGGUUUGCCCCUGAUAGUGCUAGGGGGGCCUGGAAGUUUGGACUGGGCAGAGCUCAACACAGCGUGGCAAAGUGGCUGUGGCUAGACUGCCUCUCUGGAUUCCUCGUCACUCAGCAGGGCAUCUCUGAGAGAGAUGCC [U15G A31G A141G] | 2.3 |
| UACGUAGGUGGUUUGCCCCUGAUAGUGCUAAGGGGGCCUGGGAGGUUGGACUGGGCAGAGCUCAACACAGCGUGGCAAAGUGGCUGUGGCUAGAAUGCCUCUCUGGAUUCCUCGUCACUCAGCAGGGCAUCUCUGAGAGAAAUGCC [U15G A42G U45G C95A] | 0.14 |
| UACGUAGGUGGUUUGCCCCUGAUAGUGCUAAGGGGGCCUGGAAGUUUGGACUGGGCAGAGCUCAACACAGCGUGGCAAAGUGGCUGUGGCUUGACUGCCUCUCUGGAUUCCUCGUCACUCAGCAGGGCAUCUCUGGGAGAGAUGCC [U15G A92U A136G A141G] | 0.97 |
| UACGUAGGUGGUUUGCCCCUGAUAGUGCUAAGGGGGCCUGGAAGUUUGGAAUGGGCAGAGCUCAACACAGCGUGGCAAAGUGGCUGUGGCUAGACUGCCUCCCUGGAUUCCUCGUCACUCAGCAGGGCAUCUCUGAGAGAAAUGCC [U15G C51A U102C] | 1.39 |
